Test results reported in a collection of fitness landscapes (doi:10.1126/science.1257360).
This is one part of the list.

B1: PhoQ; a variant is named by its letters at X, in order, P23837 (parent)
chain: MKKLLRLFFPLSLRVRFLLATAAVVLVLSLAYGMVALIGYSVSFDKTTFRLLRGESNLFYTLAKWENNKLHVELPENIDKQSPTMTLIYDENGQLLWAQRDVPWLMKMIQPDWLKSNGFHEIEADVNDTSLLLSGDHSIQQQLQEVREDDDDAEMTHSVAVNVYPATSRMPKLTIVVVDTIPVELKSSYMVWSWFIYVLSANLLLVIPLLWVAAWWSLRPIEALAKEVRELEEHNRELLNPATTRELTSLVRNLNRLLKSERERYDKYRTTLTDLTHSLKTPLXXLQXXLRSLRSEKMSVSDAEPVMLEQISRISQQIGYYLHRASMRGGTLLSRELHPVAPLLDNLTSALNKVYQRKGVNISLDISPEISFVGEQNDFVEVMGNVLDNACKYCLEFVEISARQTDEHLYIVVEDDGPGIPLSKREVIFDRGQRVDTLRPGQGVGLAVAREITEQYEGKIVAGESMLGGARMEVIFGRQHSAPKDE

Variants of: B1
Assay: enrichment ratio after two sorts for PhoP signalling (ratio (wild type AVST 3.29)); higher = more functional
Conditions: with PhoP (E. coli)

Point of comparison: TSTM, enrichment ratio 25.6. Against it:
- AGEP — lower, ≤ 0.25
- LPSG — lower, ≤ 0.25
- LDGP — lower, ≤ 0.25
- MFEM — lower, ≤ 0.25
- SYFT — lower, ≤ 0.25
- NTEA — lower, ≤ 0.25
- HGRH — lower, ≤ 0.25
- IPMT — lower, ≤ 0.25
- WHRK — lower, ≤ 0.25
- WRHT — lower, ≤ 0.25
- PAGF — lower, ≤ 0.25
- IPGF — lower, ≤ 0.25
- NHFQ — lower, ≤ 0.25
- HWKC — lower, ≤ 0.25
- TNWL — lower, ≤ 0.25
- WIKR — lower, ≤ 0.25
- QQPG — lower, ≤ 0.25
- RMNS — lower, ≤ 0.25
- TYFQ — lower, ≤ 0.25
- EIRF — lower, ≤ 0.25
- PSMP — lower, ≤ 0.25
- RHYC — lower, ≤ 0.25
- GIGF — lower, 10.9
- LMRF — lower, ≤ 0.25
- DYIN — lower, ≤ 0.25
- TPKN — lower, ≤ 0.25
- YLNP — lower, ≤ 0.25
- SQAI — lower, 15.1
- WGLE — lower, ≤ 0.25
- RCEN — lower, ≤ 0.25
- KYHI — lower, ≤ 0.25
- LEMG — lower, 11.8
- MILH — lower, 0.967
- FMFE — lower, ≤ 0.25
- RSTK — lower, ≤ 0.25
- FIVF — lower, ≤ 0.25
- PPAN — lower, ≤ 0.25
- IKEE — lower, ≤ 0.25
- VMKR — lower, ≤ 0.25
- SEIY — lower, 21.5
- TNPI — lower, ≤ 0.25
- VDGH — lower, ≤ 0.25
- MIRV — lower, ≤ 0.25
- YSKN — lower, ≤ 0.25
- KHSC — lower, ≤ 0.25
- TCGG — lower, 21.5
- YITN — lower, ≤ 0.25
- HWDA — lower, ≤ 0.25
- YIHI — lower, ≤ 0.25
- TYIE — lower, ≤ 0.25
- MQIE — lower, ≤ 0.25
- HPHE — lower, ≤ 0.25
- VQIV — lower, 0.303
- QLKR — lower, ≤ 0.25
- DYFK — lower, ≤ 0.25
- PNPN — lower, ≤ 0.25
- AYQF — lower, ≤ 0.25
- GSSA — lower, 3.54
- VFEP — lower, ≤ 0.25
- PWYK — lower, ≤ 0.25
- DIYQ — lower, ≤ 0.25
- YPHG — lower, ≤ 0.25
- HPYI — lower, ≤ 0.25
- TTAG — lower, 6.99
- WSQE — lower, ≤ 0.25
- WHYD — lower, ≤ 0.25
- VYTG — lower, ≤ 0.25
- KCGG — lower, ≤ 0.25
- ADQF — lower, ≤ 0.25
- IYMG — lower, ≤ 0.25
- WKGS — lower, ≤ 0.25
- QATC — lower, ≤ 0.25
- WAMP — lower, ≤ 0.25
- FSYN — lower, ≤ 0.25
- KISM — lower, ≤ 0.25
- PDRQ — lower, ≤ 0.25
- FRNK — lower, ≤ 0.25
- TMIK — lower, ≤ 0.25
- INFD — lower, ≤ 0.25
- PKYC — lower, ≤ 0.25
- LRAN — lower, ≤ 0.25
- NVGG — lower, ≤ 0.25
- TQDF — lower, 2.27
- YWNI — lower, ≤ 0.25
- RTNF — lower, ≤ 0.25
- QYLV — lower, ≤ 0.25
- LDCN — lower, ≤ 0.25
- ADVK — lower, ≤ 0.25
- LDYY — lower, ≤ 0.25
- ASGP — lower, ≤ 0.25
- VHIQ — lower, ≤ 0.25
- DQRG — lower, ≤ 0.25
- TTCE — lower, 8.85
- NKCG — lower, ≤ 0.25
- LEEH — lower, ≤ 0.25
- ANES — lower, ≤ 0.25
- FCGY — lower, ≤ 0.25
- YQVI — lower, ≤ 0.25
- LKYF — lower, ≤ 0.25
- ECNC — lower, ≤ 0.25
- LPGT — lower, ≤ 0.25
- LSFA — lower, ≤ 0.25
- PVIC — lower, ≤ 0.25
- ICLV — lower, 18.8
- IYEC — lower, ≤ 0.25
- QEPG — lower, ≤ 0.25
- IAVR — lower, ≤ 0.25
- QKCC — lower, ≤ 0.25
- TTRM — lower, 1.07
- VGSE — lower, ≤ 0.25
- LPGA — lower, ≤ 0.25
- FYVR — lower, ≤ 0.25
- GMKV — lower, ≤ 0.25
- HWDW — lower, ≤ 0.25
- LHYD — lower, ≤ 0.25
- GNVN — lower, ≤ 0.25
- DGHF — lower, ≤ 0.25
- GYRT — lower, ≤ 0.25
- PAYY — lower, ≤ 0.25
- VMMG — lower, ≤ 0.25
- GFYR — lower, 0.293
- PMPS — lower, ≤ 0.25
- FSHT — lower, ≤ 0.25
- DNIA — lower, ≤ 0.25
- PRSF — lower, ≤ 0.25
- GHVM — lower, ≤ 0.25
- LFPQ — lower, ≤ 0.25
- MDEI — lower, ≤ 0.25
- KCIQ — lower, ≤ 0.25
- HWLI — lower, ≤ 0.25
- WEPS — lower, ≤ 0.25
- MGCW — lower, ≤ 0.25
- KIWK — lower, ≤ 0.25
- QHFT — lower, ≤ 0.25
- YMYR — lower, ≤ 0.25
- GLRL — lower, ≤ 0.25
- VCSV — lower, 0.913
- SCTD — lower, ≤ 0.25
- WSTS — lower, ≤ 0.25
- KESV — lower, ≤ 0.25
- WVPH — lower, ≤ 0.25
- KYAR — lower, ≤ 0.25
- GQFP — lower, ≤ 0.25
- HYAA — lower, ≤ 0.25
- TDHK — lower, ≤ 0.25
- KNYI — lower, ≤ 0.25
- FLYM — lower, ≤ 0.25
- SEQQ — lower, 4.37
- ISHH — lower, ≤ 0.25
- QPMC — lower, ≤ 0.25
- YSNV — lower, ≤ 0.25
- QPQC — lower, ≤ 0.25
- YFKN — lower, ≤ 0.25
- NSAN — lower, ≤ 0.25
- FHFR — lower, ≤ 0.25
- GFSC — lower, ≤ 0.25
- PQVD — lower, ≤ 0.25
- EKVP — lower, ≤ 0.25
- QDVP — lower, ≤ 0.25
- PTVH — lower, ≤ 0.25
- WGDV — lower, ≤ 0.25
- WIYV — lower, ≤ 0.25
- CFMQ — lower, ≤ 0.25
- WFCV — lower, ≤ 0.25
- EFAH — lower, ≤ 0.25
- TKVW — lower, ≤ 0.25
- SPKH — lower, ≤ 0.25
- TTQV — lower, 16.2
- NIYY — lower, ≤ 0.25
- QAWK — lower, ≤ 0.25
- YTEG — lower, ≤ 0.25
- VIIS — lower, ≤ 0.25
- SQYM — lower, ≤ 0.25
- THHM — lower, 0.72
- EMMF — lower, ≤ 0.25
- RWHM — lower, ≤ 0.25
- GKHT — lower, ≤ 0.25
- HVRC — lower, ≤ 0.25
- KTKL — lower, 1.81
- TVID — lower, ≤ 0.25
- EFMT — lower, ≤ 0.25
- NMQC — lower, ≤ 0.25
- IVWR — lower, ≤ 0.25
- PYTA — lower, ≤ 0.25
- VIGV — lower, ≤ 0.25
- RNIM — lower, ≤ 0.25
- HHND — lower, ≤ 0.25
- CFYW — lower, ≤ 0.25
- IKVD — lower, ≤ 0.25
- INSY — lower, ≤ 0.25
- WMYA — lower, ≤ 0.25
- NKLA — lower, ≤ 0.25
- LENL — lower, ≤ 0.25
- GHHL — lower, ≤ 0.25
